# Test results as given in paper PMC4336329 (PLoS ONE, 2015).
# Out of some 310,000 compounds screened, about 14,000 (4.5%) showed an effect of 50% or more. The effect is printed as a negative number. This is one part of the list.
# Target: human ether-à-go-go-related gene (hERG) potassium channel (human, UniProt Q12809)
# Test: primary screen, population patch clamp on CHO cells stably expressing hERG
# 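Also: peak tail current of the secondary pulse compared with the same well before compound.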
# Chain of human ether-à-go-go-related gene (hERG) potassium channel (Q12809 whole entry, looked up): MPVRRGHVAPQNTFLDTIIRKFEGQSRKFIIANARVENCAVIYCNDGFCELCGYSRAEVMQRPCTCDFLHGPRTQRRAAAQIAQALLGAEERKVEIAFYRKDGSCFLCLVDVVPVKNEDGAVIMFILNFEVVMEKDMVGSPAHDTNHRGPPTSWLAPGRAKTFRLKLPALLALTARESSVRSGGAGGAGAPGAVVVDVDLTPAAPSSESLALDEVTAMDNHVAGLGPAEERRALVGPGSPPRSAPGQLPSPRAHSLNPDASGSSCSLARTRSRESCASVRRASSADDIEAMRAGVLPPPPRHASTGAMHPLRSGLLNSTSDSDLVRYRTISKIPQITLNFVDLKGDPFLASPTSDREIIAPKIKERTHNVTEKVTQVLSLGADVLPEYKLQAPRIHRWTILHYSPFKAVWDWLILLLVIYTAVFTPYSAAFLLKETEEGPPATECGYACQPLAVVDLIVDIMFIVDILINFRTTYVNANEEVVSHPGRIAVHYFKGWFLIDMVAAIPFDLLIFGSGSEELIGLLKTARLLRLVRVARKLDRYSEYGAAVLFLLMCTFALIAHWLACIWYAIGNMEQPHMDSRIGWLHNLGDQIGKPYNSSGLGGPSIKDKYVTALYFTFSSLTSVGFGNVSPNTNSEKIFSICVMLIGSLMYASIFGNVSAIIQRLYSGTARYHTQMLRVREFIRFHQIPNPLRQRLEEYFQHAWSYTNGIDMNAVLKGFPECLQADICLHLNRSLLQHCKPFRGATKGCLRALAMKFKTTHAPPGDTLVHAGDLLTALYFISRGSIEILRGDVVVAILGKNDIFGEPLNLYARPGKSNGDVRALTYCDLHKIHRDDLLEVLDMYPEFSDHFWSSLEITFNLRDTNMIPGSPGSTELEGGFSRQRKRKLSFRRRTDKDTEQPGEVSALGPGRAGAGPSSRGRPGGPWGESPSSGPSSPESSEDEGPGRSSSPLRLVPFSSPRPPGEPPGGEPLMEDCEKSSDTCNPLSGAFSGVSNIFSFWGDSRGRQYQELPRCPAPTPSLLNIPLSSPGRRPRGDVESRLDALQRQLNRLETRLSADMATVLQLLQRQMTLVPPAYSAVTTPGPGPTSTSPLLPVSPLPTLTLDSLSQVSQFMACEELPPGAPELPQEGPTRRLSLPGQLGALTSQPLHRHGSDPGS
row,Structure (SMILES),"hERG current change (%, negative = inhibition) at 10uM"
1,CCCOc1ccc(NC2=CC(=O)CC(C)(C)C2)cc1,1.89%
2,COc1ccc(C2CC(C(F)(F)F)n3ncc(C(=O)O)c3N2)cc1OC (stereo not shown),-8.97%
3,CC1CCN(S(=O)(=O)c2ccc3c(c2)c(=O)c(C(=O)N2CCCCC2)cn3C)CC1,-14.7%
4,CCc1cc(=O)oc2c(C)c(OC(C)C(=O)NC3CC(C)(C)NC(C)(C)C3)ccc12 (stereo not shown),10.5%
5,O=C(c1ccc(S(=O)(=O)N2CCCCCC2)cc1)N1CCCC(C(F)(F)F)C1 (stereo not shown),-1.72%
6,O=C1CC(c2ccc(F)cc2)Cc2nc(NCC3CCCO3)ncc21 (stereo not shown),-20.2%
7,Cc1cccc(NC(=O)CNC(=O)CSc2nnc(C(F)(F)F)n2C)c1C,5.57%
8,CCC(C)NC(=O)C1c2ccccc2C(=O)N1Cc1cc(OC)ccc1OC (stereo not shown),9.25%
9,Cc1[nH]n(-c2ccccc2)c(=O)c1C(=O)c1ccc([N+](=O)[O-])cc1,5.73%
10,C[N+]1(C)CCC(=C2c3ccccc3CC(=O)c3sccc32)CC1.[I-],-4.62%
11,Cc1ccc(NC(=O)CSc2ncn[nH]2)cc1S(=O)(=O)N1CCOCC1,13.4%
12,CCOC(=O)c1ccoc1CSCC(=O)N1CCN(S(=O)(=O)c2ccc(C)cc2)CC1,-25%
13,COc1cccc(CNc2ncc(Br)cc2Br)c1O,9.52%
14,CCCCOCCCNCc1cccn1CCN1CCOCC1.O=C(O)C(=O)O,9.07%
15,CC(C)(O)c1ccc2c(c1)CCC1C(C)(C(=O)O)CCCC21C (stereo not shown),4.17%
16,O=C1CC(c2nc3ccccc3[nH]2)CN1c1ccccc1F (stereo not shown),-4.32%
17,CS(=O)(=O)c1ccc(N2CCN(C3CC(=O)NC3=O)CC2)cc1 (stereo not shown),13.1%
18,CC(C)NC(C(=O)Nc1cc(Cl)cc(Cl)c1)c1ccccc1 (stereo not shown),-2.09%
19,CCC1(c2ccc(F)cc2)NC(=O)N(CC(=O)N2CC(=O)Nc3ccccc32)C1=O (stereo not shown),-5.52%
20,CCCNC(=O)NNC(=O)c1cc(-c2ccc3c(c2)OCO3)nc2ccccc12,12.3%
21,COc1ccccc1N1CCN(C(=O)c2ccc(N3CCCCS3(=O)=O)cc2)CC1,7.52%
22,C=CCNCC(=O)Nc1sc2c(c1C(=O)Nc1ccc(OC)cc1OC)CCC2,10.4%

row,Structure (SMILES),"hERG current change (%, negative = inhibition) at 10uM"
1,C=CCN1C(=O)C2C(C(=O)NCc3ccccc3)C3(C)C=CC2(O3)C1C(=O)NC(C)(C)C (stereo not shown),19.5%
2,COc1ccc(C2c3c(ccc4ccccc34)Oc3ncn4nc(Cc5ccccc5)nc4c32)cc1OC (stereo not shown),-7.49%
3,COc1cc(/C=C2/SC(=S)N(CCC(=O)Nc3ccc(C(=O)O)cc3)C2=O)cc(OC)c1OC,25.1%
4,CC1=CC(=O)c2c(O)ccc(O)c2C1=O,-42.6%
5,COc1cc(OC)cc(C(=O)Nc2ncn[nH]2)c1,7.31%
6,Cc1cc(C)n(CCCNC(=O)c2ccc(S(=O)(=O)NCc3ccco3)cc2)n1,-0.172%
7,CCc1nnc(NC(=O)c2cc(-c3cccnc3)nc3ccccc23)s1,16.3%
8,O=C(Cc1cccs1)N/N=C/c1ccc(OCc2ccccc2)cc1,4.2%
9,O=C(COC(=O)c1cc(=O)[nH]c2ccccc12)Nc1nc(-c2cccc(Br)c2)cs1,-6.75%
10,CCOc1ncccc1C(=O)OCC(=O)Nc1cccc(S(=O)(=O)N2CCCCCC2)c1,-38%
11,O=C(C[C@H]1C(=O)N(C2CCCCC2)C[C@@H]1Cc1ccccc1)Nc1ccccc1,-27.4%
12,O=C(N/N=C/c1ccc2ncccc2c1)c1cc(-c2cccs2)nc2ccccc12,14.4%
13,O=C(CO/N=C/c1ccccc1Cl)N1CCCc2ccccc21,-5.34%
14,Cn1ccnc1C(=O)Cc1ccc([N+](=O)[O-])cc1,-9.89%
15,CN(C)Cc1c(O)ccc2occ(C(=O)c3ccc(F)cc3)c12,-69.6%
16,O=C(CSc1nnc(Cc2ccccc2)o1)Nc1ccccc1,9.47%
17,CCC1CCCCN1S(=O)(=O)c1ccc(NC(=O)c2nc(S(C)(=O)=O)ncc2Cl)cc1 (stereo not shown),13.5%
18,Cc1ccnc(NC(=O)Cc2ccc([N+](=O)[O-])cc2)c1,-12.4%
19,Cc1cc2nc(C3CCN(C(=S)NCCCOC(C)C)CC3)[nH]c2cc1C,13.7%
20,COC(=O)c1sc(C(C)(C)C)cc1CS(=O)(=O)c1ccc(Cl)cc1,7.17%
21,Cc1cc(S(=O)(=O)NC(C)C)ccc1OCC(=O)N1CCN(Cc2ccc3c(c2)OCO3)CC1,-27.6%
22,Cc1ccc(C#N)c(SCCN2CCCCC2)n1,-19.8%

row,Structure (SMILES),"hERG current change (%, negative = inhibition) at 10uM"
1,O=C(CN1c2ccccc2Sc2ccccc21)N/N=C/c1ccc(Cl)cc1Cl,25%
2,CCC1CCCCN1CCCNC(=O)CN1C(=O)COc2ccc(S(=O)(=O)N3CCC(C)CC3)cc21 (stereo not shown),-41.4%
3,COc1cc(C2=NOC(C(=O)N3CCN(c4ccc(F)cc4)CC3)C2)cc(OC)c1OC (stereo not shown),-43.6%
4,Cc1ccc(S(=O)(=O)N2CCC(=O)N(C(COCc3cccc(Cl)c3)Cc3ccccc3)CC2)cc1 (stereo not shown),7.67%
5,Cn1c(SCc2ccccc2F)nnc1-c1ccccn1,-14.5%
6,CCc1nc(SCC(=O)N2CCC(C)CC2)c2c(=O)n(C)c(=O)n(C)c2n1,-11.6%
7,Oc1ccc2ccccc2c1CN1CC=C(c2ccccc2)CC1,40.6%
8,c1ccc(-c2nnc(-c3c[nH]c4ccccc34)nc2-c2ccccc2)cc1,2.71%
9,O=C(CN1CCN(c2nc(-c3ccc(Cl)cc3)cs2)CC1)NCc1ccco1,-42.4%
10,Cc1cccc2c(=O)c(C(=O)NCc3ccc(F)cc3)c[nH]c12,5.04%
11,Cc1ccc(COC(=O)CCc2nc3ccccc3c(=O)[nH]2)cc1,-13.3%
12,Cc1ccc2cc(NC(=O)c3ccccc3)ccc2n1,5.36%
13,CNC(=O)c1cnn(-c2nc(-c3ccc(OC)cc3)cs2)c1C(F)(F)F,18.8%
14,CN(CC(=O)Nc1cccnc1)S(=O)(=O)c1ccccc1,1.6%
15,CCc1c(C)nc(N)c(C#N)c1-c1ccccc1,14.7%
16,O=C(O)C1CC=CCC1C(=O)N1CCc2ccccc21 (stereo not shown),18.3%
17,O=C(COC(=O)CNC(=O)c1cccc([N+](=O)[O-])c1)NCc1ccco1,-7.06%
18,COc1ccc(/C=C(\NC(=O)c2ccco2)C(=O)NC(Cc2ccccc2)C(=O)O)cc1 (stereo not shown),27.7%
19,Cc1ccc(C(=O)N/C(=C\c2cccs2)C(=O)NCc2ccncc2)cc1,-52.9%
20,COc1ccc(-n2c(C)cc(/C=C3\SC(=S)NC3=O)c2C)cc1,11.2%
21,Cc1cc[n+](-c2nc3ccccc3nc2[N-]S(=O)(=O)c2cccs2)cc1C,-1.5%
22,CC1CCCN(C(=O)c2ccc3c(=O)n(Cc4ccc5c(c4)OCO5)c(=S)[nH]c3c2)C1 (stereo not shown),1.16%

row,Structure (SMILES),"hERG current change (%, negative = inhibition) at 10uM"
1,O=C(c1cccc2c1-c1ccccc1/C2=N/O)N1CCCCC1,-24.4%
2,CC(=O)Nc1ccc(N(CC(=O)NC2CCCC2)C(=O)CCC(=O)Nc2cc(C)on2)cc1,27.2%
3,O=C(NC1CCCCC1)c1ccccc1NC(=S)NC(=O)C1CC1,33.4%
4,COC(=O)[C@@H]1CC(O)CN1C(=O)C12CC3CC(CC(C3)C1)C2 (stereo partly shown),10.4%
5,CC1CC(NC(=O)c2cc3c(=O)n4ccccc4nc3n2C)CC(C)(C)C1 (stereo not shown),-2.43%
6,O=C(CN(Cc1ccc(F)cc1)C(=O)CNS(=O)(=O)c1ccccc1)NCC1CCCO1 (stereo not shown),11.8%
7,COc1cccc(OC)c1OCCNCC1COc2ccccc2O1.Cl (stereo not shown),-22.5%
8,O=C1NC2(CCCCCC2)Oc2ccccc21,-18.7%
9,CCCCN1C(=O)/C(=C/c2ccc(N3CCCCCC3)cc2)C(=O)NC1=S,-22.9%
10,COc1ccc(OCC(=O)Nc2ccccc2O)cc1,-12.5%
11,CCOC(=O)N1CCN(S(=O)(=O)CCNC(=O)c2ccc(OC)cc2)CC1,-21.6%
12,O=C(Cn1nnc(-c2ccncc2)n1)Nc1ccc2c(c1)CCC2,12%
13,C=C(C)C(=O)N1CC2(CC(c3cccc(NC(=O)CC(c4ccccc4)c4ccccc4)c3)=NO2)C[C@H]1C(N)=O (stereo partly shown),0.22%
14,CCOP(=O)(OCC)/C(C#N)=C/c1ccc(-c2ccc(F)cc2F)o1,5.5%
15,COc1ccc(Cn2c(-c3ccc(OC)cc3)nc3ccccc32)cc1,-36.9%
16,N#Cc1cccc(NC(=O)Cc2ccccc2)c1,13.6%
17,Cc1ccc(C)c(S(=O)(=O)N2CCCC2CNC(=O)C(=O)NCc2ccccc2C)c1 (stereo not shown),-24.5%
18,COc1cc(/C=N/Nc2ccccn2)ccc1OCC(C)C,27.5%
19,C=C1c2cc(CC)ccc2NC(=O)N1c1ccc(C)cc1,8.71%
